± gives the standard deviation of the averaged measurements. The list shows a part of the results.

The experiment relates to PfAP2-LT AP2 domain (GST-tagged). The experiment can be described thus: gcPBM binding intensity (ln(normalized median fluorescence intensity)); higher = stronger DNA binding. The method, boiled down: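 For binding intensity, the highest Masliner-normalised natural-log median intensity across replicate spots of either probe orientation was taken. Protein bound to the array was stained with Alexa488 anti-GST antibody and scanned at 488 nm. The protein, GST-tagged P. falciparum DNA-binding domains from E. coli at about 25 μg on average, had been applied for 1 h to an Agilent 4 × 180k array of primer-extended double-stranded 36-bp intergenic genomic probes and negative controls.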
For “TTTTTTTTGTGGTGTCGTACATATGTTTGTTTTAAG [XGTACX_site1759]”, the “gcPBM binding intensity (ln)” value stood at 8.91 ± 0.44.

Turning to “ACATATATATATATATATATATATATATAATATTTA [CACACA_negctrl_site633]”, the “gcPBM binding intensity (ln)” value worked out at 9.37 ± 0.33.

Take “ATTATGCTACAAGGAGAACACACAATTGCCACTTTT [CACACA_site8673]”: the “gcPBM binding intensity (ln)” value worked out at 9.1 ± 0.46.

As for “GGTGATAATAAGCATACACACACACCCAAAAAAAAA [CACACA_site8137]”, the “gcPBM binding intensity (ln)” value is 9.59 ± 0.35.

With CCACGAGAATATATAGTGCATAATAATTTTTTTTTG, the “gcPBM binding intensity (ln)” value came out at 8.65 ± 0.54.

Turning to “TTTAAAAAGATATATACACACATATAAATAAATATA [CACACA_site6436]”, the “gcPBM binding intensity (ln)” value turned out to be 8.88 ± 0.43.

With “ACACATACACATTAGGTGCATATATTTCAATATTAC [GTGCAC_site9423]”, the “gcPBM binding intensity (ln)” value was determined as 9.07 ± 0.39.

For the sequence “AGCCTCGGGGTCATATATATATATATATATATATAT [CACACA_negctrl_site512]”, the “gcPBM binding intensity (ln)” value was 10.35 ± 0.05.

With “CCACGTATAATATGTACACACACATATATACAAAAA [CACACA_site8208]”, the “gcPBM binding intensity (ln)” value is 9.47 ± 0.45.

As to “ATTATATTTTTAAGTACACACATATATATATATATA [CACACA_site5925]”, the “gcPBM binding intensity (ln)” value was found to be 9.46 ± 0.19.

Turning to “ATATTAATTCGTTTTGTACACACATAATGAATAATT [CACACA_site8701]”, the “gcPBM binding intensity (ln)” value was determined as 9.04 ± 0.44.

Consider “ATAAAAATCATGTTGGTGCGAAATTTTATTATCAGA [GTGCAC_site9735]”, for which the “gcPBM binding intensity (ln)” value was 8.62 ± 0.44.

Regarding “AATTATTTACCCTATACACACAAAACAGACTAAAAA [CACACA_site6688]”, the “gcPBM binding intensity (ln)” value was 9.06 ± 0.35.

As for “AAGGTATGATTAATCACACACATAAATATATATACA [CACACA_site2658]”, the “gcPBM binding intensity (ln)” value was 9.24 ± 0.4.

With “TTATGTATAAACACACGTACACACACTAAGTATATC [XGTACX_site3254]”, the “gcPBM binding intensity (ln)” value is 9.41 ± 0.24.

In the case of “ATGTTTTTAAAAAATTGTACATAATATTTTTTATAA [XGTACX_site7692]”, the “gcPBM binding intensity (ln)” value turned out to be 8.43 ± 0.42.

With “TATATATATATATATATAATACGAATTTGTAGTACA [TGCATGCA_negctrl_site224]”, the “gcPBM binding intensity (ln)” value was 9.05 ± 0.3.

In the case of “TATTATTGCATATTTACACACGTACTAATTTAAACA [CACACA_site970]”, the “gcPBM binding intensity (ln)” value came out at 9.07 ± 0.4.

With “AAAATAATGTATATATGTACATATAAATATATATAT [XGTACX_site8081]”, the “gcPBM binding intensity (ln)” value was 8.98 ± 0.49.

As for “TTGTATATTTTATGTACACACAATAAGTTAATATAA [CACACA_site4655]”, the “gcPBM binding intensity (ln)” value was found to be 8.63 ± 0.43.

For “TTTTTCTATAAAAAAAAAAAAAAAAAATATATATAT [TGCATGCA_negctrl_site535]”, the “gcPBM binding intensity (ln)” value was 8.12 ± 0.34.

On to “ATAAAAGGAAGAAAATGTACATATAATTATATGCAT [XGTACX_site8421]”, for which the “gcPBM binding intensity (ln)” value came out at 8.88 ± 0.47.

For “TGTATACTATTAAATTGTACACATAAGAAATATTAT [XGTACX_site5839]”, the “gcPBM binding intensity (ln)” value came to 8.64 ± 0.33.

For “TTTTACAAATATAATGGGTGAGCTATCAAAATAAAT [GTGCAC_negctrl_site91]”, the “gcPBM binding intensity (ln)” value amounted to 8.58 ± 0.44.

These data come from the supplement of paper PMC11417369.
